The text below walks through data of a collection of fitness landscapes (doi:10.1126/science.1257360).

B1: PhoQ; a variant is named by its letters at X, in order, P23837 (parent)
chain: MKKLLRLFFPLSLRVRFLLATAAVVLVLSLAYGMVALIGYSVSFDKTTFRLLRGESNLFYTLAKWENNKLHVELPENIDKQSPTMTLIYDENGQLLWAQRDVPWLMKMIQPDWLKSNGFHEIEADVNDTSLLLSGDHSIQQQLQEVREDDDDAEMTHSVAVNVYPATSRMPKLTIVVVDTIPVELKSSYMVWSWFIYVLSANLLLVIPLLWVAAWWSLRPIEALAKEVRELEEHNRELLNPATTRELTSLVRNLNRLLKSERERYDKYRTTLTDLTHSLKTPLXXLQXXLRSLRSEKMSVSDAEPVMLEQISRISQQIGYYLHRASMRGGTLLSRELHPVAPLLDNLTSALNKVYQRKGVNISLDISPEISFVGEQNDFVEVMGNVLDNACKYCLEFVEISARQTDEHLYIVVEDDGPGIPLSKREVIFDRGQRVDTLRPGQGVGLAVAREITEQYEGKIVAGESMLGGARMEVIFGRQHSAPKDE

Some of the results follow.

The assay covers variants of B1. In words: enrichment ratio after two sorts for PhoP signalling (ratio (wild type AVST 3.29)); higher = more functional. To be noted: with PhoP (E. coli).
Regarding RVYD, the enrichment ratio was at most 0.25.

Regarding PNIA, the enrichment ratio is at most 0.25. Next, YNSM: 0.318; KFKE: at most 0.25; TWKP: at most 0.25.

Consider LIIN, for which the enrichment ratio was at most 0.25. As for WAGL, the enrichment ratio was at most 0.25. In the case of LGDK, the enrichment ratio was at most 0.25. Take WCRL: the enrichment ratio was at most 0.25. Regarding WPIC, the enrichment ratio is at most 0.25. As for PNPQ, the enrichment ratio is at most 0.25. Next, GQCN: at most 0.25; EHTY: at most 0.25. VEKV: the enrichment ratio was at most 0.25. As to VNYH, the enrichment ratio is at most 0.25. As to TPRH, the enrichment ratio was at most 0.25.

For the variant PCAL, the enrichment ratio is at most 0.25. In the case of PFLY it was at most 0.25; in that of EHAM, at most 0.25; in that of QVYL, 2.73. For the variant PHSA, the enrichment ratio is at most 0.25. Take MKIE: the enrichment ratio is at most 0.25.

As to EYNE, the enrichment ratio was at most 0.25.

Turning to TCNE, the enrichment ratio is 19.6.

As to GSTF, the enrichment ratio was at most 0.25. With DFDH, the enrichment ratio is at most 0.25. For the variant TTNE, the enrichment ratio is at most 0.25. Next, IAVA: at most 0.25. As for PQAV, the enrichment ratio is at most 0.25. With NSDL, the enrichment ratio is at most 0.25. Take FILL: the enrichment ratio is 3.1. As to WWRA, the enrichment ratio was at most 0.25. As to VGDF, the enrichment ratio was at most 0.25.

On to FFGR, for which the enrichment ratio is at most 0.25. In the case of SANR it was at most 0.25; in that of YHSN, at most 0.25. Take TGPF: the enrichment ratio is at most 0.25. As for SPDH, the enrichment ratio is at most 0.25. For STNC, the enrichment ratio is at most 0.25.

Take KTCN: the enrichment ratio is at most 0.25. As for FKWN, the enrichment ratio was at most 0.25. QHHY: the enrichment ratio was at most 0.25. Consider TFEN, for which the enrichment ratio is at most 0.25. As for VFRV, the enrichment ratio was at most 0.25. For the variant HFYM, the enrichment ratio was at most 0.25. In the case of HMDQ it was at most 0.25; in that of GYRW, at most 0.25. In the case of SETP it was at most 0.25.

Regarding VKGD, the enrichment ratio is at most 0.25.

For the variant MVFA, the enrichment ratio is at most 0.25.

Consider WLSH, for which the enrichment ratio is at most 0.25. In the case of FYDC it was at most 0.25; in that of HSLS, at most 0.25. As for TPST, the enrichment ratio was at most 0.25. Take TERI: the enrichment ratio was at most 0.25. For the variant MPTI, the enrichment ratio was at most 0.25. Next, LIWL: at most 0.25; LTHA: at most 0.25. In the case of PVMW it was at most 0.25; in that of YPSS, at most 0.25. In the case of EMKT it was at most 0.25; in that of QMMG, at most 0.25; in that of KECD, at most 0.25. On to WQSD, for which the enrichment ratio was at most 0.25. Regarding NRWY, the enrichment ratio is at most 0.25. Consider LPCD, for which the enrichment ratio was at most 0.25.

For the variant PLSL, the enrichment ratio is at most 0.25.

As to YHLW, the enrichment ratio is at most 0.25. For KAYI, the enrichment ratio was at most 0.25.

ETYF: the enrichment ratio is at most 0.25. On to YHHQ, for which the enrichment ratio is at most 0.25. Consider MVHF, for which the enrichment ratio stood at 0.626. For AHSK, the enrichment ratio was at most 0.25. TDRK: the enrichment ratio is at most 0.25. For KEDC, the enrichment ratio is at most 0.25. In the case of MRQD it was at most 0.25.

Turning to RGDR, the enrichment ratio is at most 0.25. As to STYT, the enrichment ratio came to 0.437. Take NGVH: the enrichment ratio was at most 0.25. For the variant KQHE, the enrichment ratio is at most 0.25.

For HGRF, the enrichment ratio was at most 0.25.

With HWAH, the enrichment ratio was at most 0.25. In the case of EQTK it was at most 0.25. As for TCSE, the enrichment ratio amounted to 4.12. For GETR, the enrichment ratio is at most 0.25. As to NRNW, the enrichment ratio is at most 0.25. In the case of MMTK it was at most 0.25; in that of NSST, at most 0.25. Take SCTE: the enrichment ratio came to 1.69.

With SNKI, the enrichment ratio is at most 0.25. As to YVCE, the enrichment ratio is at most 0.25. With GMSC, the enrichment ratio was at most 0.25.

Regarding LLGA, the enrichment ratio is at most 0.25.

As for SIKV, the enrichment ratio is at most 0.25.

In the case of SFHF, the enrichment ratio was at most 0.25.

Take RDGE: the enrichment ratio is at most 0.25.

Turning to KALV, the enrichment ratio was at most 0.25.

With FCTP, the enrichment ratio was at most 0.25. With LLTG, the enrichment ratio is at most 0.25. In the case of ADLY it was 1.07; in that of DDHT, at most 0.25. For the variant KKGG, the enrichment ratio was at most 0.25. For the variant LISY, the enrichment ratio was at most 0.25.

As for LYGF, the enrichment ratio was at most 0.25.

For the variant LWFH, the enrichment ratio is at most 0.25. Take WAHG: the enrichment ratio was at most 0.25. On to NKQC, for which the enrichment ratio is at most 0.25. In the case of VCFM it was at most 0.25; in that of NWAH, at most 0.25; in that of LWCD, at most 0.25.

HIHS: the enrichment ratio is at most 0.25. As to TSWR, the enrichment ratio is at most 0.25. In the case of YPQE, the enrichment ratio is at most 0.25. Take FKVL: the enrichment ratio was at most 0.25. Next, KLAG: at most 0.25. With KFMV, the enrichment ratio was at most 0.25.

As for FDWT, the enrichment ratio was at most 0.25. Turning to HDKH, the enrichment ratio is at most 0.25. As for DIWT, the enrichment ratio was at most 0.25. Take VNFP: the enrichment ratio worked out at 0.624. Next, NIVR: at most 0.25. Take WRAV: the enrichment ratio is at most 0.25. As for SYVV, the enrichment ratio was 0.291.

Turning to RETQ, the enrichment ratio is at most 0.25.

In the case of DVTI, the enrichment ratio is at most 0.25.

As for ELFD, the enrichment ratio is at most 0.25. In the case of FCGV, the enrichment ratio was at most 0.25. Next, KDGF: at most 0.25. For the variant LNPS, the enrichment ratio was at most 0.25.

As to YKWQ, the enrichment ratio was at most 0.25. As for ALCY, the enrichment ratio stood at 6.92. As for GCRF, the enrichment ratio was at most 0.25. On to SKQF, for which the enrichment ratio was at most 0.25.

Consider TFYG, for which the enrichment ratio is at most 0.25.

Turning to TLNH, the enrichment ratio turned out to be 9.5. Consider LQID, for which the enrichment ratio is at most 0.25. Consider YCSE, for which the enrichment ratio amounted to 0.428. As to PVYN, the enrichment ratio was at most 0.25. Consider SGKI, for which the enrichment ratio is at most 0.25. As for IICG, the enrichment ratio was at most 0.25.

For RVNC, the enrichment ratio was at most 0.25. For RMNY, the enrichment ratio was at most 0.25. Take DWYC: the enrichment ratio was at most 0.25. Take WDCN: the enrichment ratio was at most 0.25. With VSCQ, the enrichment ratio worked out at 4.61.

On to WQHP, for which the enrichment ratio is at most 0.25. Take MWLC: the enrichment ratio was at most 0.25. As to NFFG, the enrichment ratio is at most 0.25. Next, GAMT: at most 0.25. In the case of PIKP it was at most 0.25.

For the variant DMNF, the enrichment ratio is at most 0.25. Regarding KECI, the enrichment ratio is at most 0.25. Consider NHEN, for which the enrichment ratio was at most 0.25.
